{"source": "PubChem BioAssay AID504832", "about": "(National Center for Advancing Translational Sciences (NCATS), 2011)", "note": "About 18,000 (5.8%) of roughly 310,000 compounds were called active. The inconclusive results got no clear call from the source; some entries with a clear call stand among them for comparison. Calls come from the whole dose curve; as a rule, active = well fitted inhibition curve with a large enough effect; inconclusive = small, poorly fitted or top-dose-only effect, or another doubt; inactive = no such curve, though single readings can be large or run the other way. No potency is given beside an inconclusive call; the fits are too rough. Potency is the fitted concentration of half-maximal effect; tags give direction and shape of the fitted curve.", "data": [{"experiment": "Primary qHTS for delayed death inhibitors of the malarial parasite plastid, 48 hour incubation", "conditions": "P. falciparum luciferase growth in erythrocytes; series mostly up to 28.7 µM", "summary_of_the_method": "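Parasite viability was followed by luminescence of a genomically integrated firefly luciferase. Cultures held 0.1% parasitemia at 2% hematocrit (final), incubated under 5% CO2 at 37 C.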", "values": [{"smiles": "Cc1cc2c(cc(C(=O)NCCCN3CCOCC3)n2Cc2ccc(Cl)cc2)o1", "Potency": "inconclusive [inhibitor, single point]"}, {"smiles": "Cc1ccc(C(=O)Nc2ccc(N3CCN(C(=O)c4cccs4)CC3)cc2)c(Cl)c1", "Potency": "active: 9.28 µM"}, {"smiles": "CC(OC(=O)c1ncc(Cl)c(Cl)c1Cl)C(=O)NC1(C#N)CCCCC1", "note": "(stereo not given)", "Potency": "inactive"}, {"smiles": "O=C(COc1ccc(F)cc1)NC1CC1", "Potency": "inactive"}, {"smiles": "CCN(CC)c1ccc(N=Nc2nn(C)c(C)c2[N+](=O)[O-])cc1", "Potency": "inconclusive [inhibitor, single point]"}, {"smiles": "NC(=O)c1ccc[n+](CC(=O)c2ccc(NC(=O)c3ccccc3)cc2)c1", "Potency": "inconclusive [inhibitor, partial curve, poor fit]"}, {"smiles": "COc1ccc(-n2nc3c(N4CCC(C(=O)NC5CCCCC5)CC4)nnc(C)c3c2C)cc1", "Potency": "inconclusive [inhibitor, single point]"}, {"smiles": "CC(NC(=O)CN(C)Cc1cccc(Cl)c1)c1ccccc1", "note": "(stereo not given)", "Potency": "inactive"}, {"smiles": "CCCOc1ccc(Oc2ccc(S(=O)(=O)N3CCN(C)CC3)cn2)cc1", "Potency": "inactive"}, {"smiles": "O=c1c2ccccc2c(C=Nc2ccc(S(=O)(=O)Nc3ncccn3)cc2)c(O)n1-c1cccc(Cl)c1", "Potency": "inconclusive [inhibitor, single point]"}, {"smiles": "OCC1CCCN(c2ncnc3scc(-c4ccccc4)c23)C1", "note": "(stereo not given)", "Potency": "inconclusive [inhibitor, single point]"}, {"smiles": "OC(c1cc(-c2ccc(Cl)cc2)nc2ccccc12)C1CCCCN1", "note": "(stereo not given)", "Potency": "active: 0.037 µM"}, {"smiles": "O=C(Nc1ccc2c(c1)OCO2)c1ccncc1", "Potency": "inactive"}, {"smiles": "O=C1C=C(c2cccs2)C[C@H](c2ccccc2)[C@H]1n1nnc([N+](=O)[O-])n1", "Potency": "inconclusive [inhibitor, partial curve]"}, {"smiles": "COc1ccc(C)cc1NC(=O)c1c(C)nn(Cc2ccccc2)c1Cl", "Potency": "inactive"}, {"smiles": "O=C(NCc1ccc(F)cc1)C(c1ccccc1)N(C(=O)c1csnn1)c1ccccc1", "note": "(stereo not given)", "Potency": "inconclusive [inhibitor, single point]"}, {"smiles": "O=C1N(Cc2cccnc2)C[C@@H]2C[C@@H](c3ccc(C(F)(F)F)cc3)N3CCC[C@@]123", "Potency": "inconclusive [inhibitor, full curve, poor fit]"}, {"smiles": "O=C(Oc1cc(Cl)cc(Cl)c1)c1cnc2n(c1=O)CCS2", "Potency": "inactive"}, {"smiles": "COc1ccc(CNC(=O)COC(=O)/C=C/c2ccco2)cc1", "Potency": "inactive"}, {"smiles": "COc1ccc(-c2noc(CNC(=O)CCCN3C(=O)[C@H]4CC=CC[C@H]4C3=O)n2)cc1", "Potency": "inactive"}, {"smiles": "COc1cc(C#N)ccc1OCC(=O)c1ccc2c(c1)OCCO2", "Potency": "inactive"}, {"smiles": "Cc1ccc(NC(C)C(=O)N/N=C/c2ccc([N+](=O)[O-])s2)cc1", "note": "(stereo not given)", "Potency": "inconclusive [inhibitor, single point]"}, {"smiles": "CCOc1ccccc1N1CCN(S(=O)(=O)c2cccs2)CC1", "Potency": "inconclusive [inhibitor, single point]"}, {"smiles": "COc1ccc(C2CC(=O)C3=C(C2)Nc2ncnn2C3c2ccccc2C)c(OC)c1", "note": "(stereo not given)", "Potency": "active: 7.38 µM"}, {"smiles": "COc1cc(O)c(C(CC(=O)N2CCCC(C)C2)c2ccc3c(c2)OCO3)c(OC)c1", "note": "(stereo not given)", "Potency": "inconclusive [inhibitor, single point]"}, {"smiles": "O=C(/C=C/c1ccc(S(=O)(=O)N2CCOCC2)cc1)NCc1ccccc1", "Potency": "inactive"}, {"smiles": "Cc1cc(C)nc(SCc2nnc(SCC(=O)N3CCCc4ccccc43)n2C)n1", "Potency": "inconclusive [inhibitor, single point]"}, {"smiles": "COc1ccc(/C=C(\\NC(=O)c2ccc(OC)c(OC)c2)C(=O)NCCc2c[nH]c3ccccc23)cc1", "Potency": "inconclusive [inhibitor, partial curve]"}, {"smiles": "CCc1ccccc1NC(=O)CN1CCN(C(=O)CNC(=O)c2ccc(N3CCCC3=O)cc2)CC1", "Potency": "inconclusive [inhibitor, partial curve, poor fit]"}, {"smiles": "CCN(CC(=O)NCc1cccs1)C(=O)c1cc(S(=O)(=O)NCc2ccccc2)ccc1C", "Potency": "inconclusive [inhibitor, single point]"}, {"smiles": "C=C1SC(=Nc2c(C)cc(C)cc2C)N(C(=O)c2sc3ccccc3c2Cl)C12CCCCC2", "Potency": "inconclusive [inhibitor, full curve, poor fit]"}, {"smiles": "O=C(Nc1cccc(Cl)c1)N1CCN(C2c3ccccc3-c3ccccc32)CC1", "Potency": "active: 9.28 µM"}, {"smiles": "C/C(=C\\C(=O)c1ccc(Br)cc1)NNC(=O)c1ccc(O)cc1", "Potency": "inactive"}, {"smiles": "OCCC1CN(Cc2cccnc2)CCN1CCc1ccccc1", "note": "(stereo not given)", "Potency": "inactive"}, {"smiles": "Cc1ccccc1N=Nc1c(C)[nH]n(C(N)=S)c1=O", "Potency": "inconclusive [inhibitor, partial curve, poor fit]"}, {"smiles": "CCOc1ccc2c(c1)C(=O)C(=O)N2CC1COc2ccccc2O1", "note": "(stereo not given)", "Potency": "inconclusive [inhibitor, single point]"}, {"smiles": "Cc1cc(N2CCN(C/C=C/c3ccccc3)CC2)n2ncnc2n1", "Potency": "inactive"}, {"smiles": "CN(CC(=O)Nc1ccc(F)cc1)C(=O)CSc1nccn1C", "Potency": "inconclusive [inhibitor, single point]"}, {"smiles": "CCc1nnc(NS(=O)(=O)c2ccc(NC(=O)c3cccc4ccccc34)cc2)s1", "Potency": "inconclusive [inhibitor, full curve, poor fit]"}, {"smiles": "CCOc1ccc(S(=O)(=O)n2cc(F)c(=O)[nH]c2=O)cc1", "Potency": "inconclusive [inhibitor, partial curve]"}, {"smiles": "COc1ccccc1C/C(N)=N/OC(=O)/C=C/c1ccccc1", "Potency": "inconclusive [inhibitor, partial curve, poor fit]"}, {"smiles": "O=C(CN(c1ccc(F)cc1)S(=O)(=O)c1ccccc1)NC1CCCCCC1", "Potency": "inconclusive [inhibitor, partial curve, poor fit]"}, {"smiles": "Cc1cc(CN(C)C(=O)CC2C(=O)NCCN2CC(c2ccccc2)c2ccccc2)on1", "note": "(stereo not given)", "Potency": "inactive"}, {"smiles": "COc1cc2c(cc1OC)C(C)N(C(=O)Cn1ncc3c1-c1cc(C)ccc1OC3)CC2", "note": "(stereo not given)", "Potency": "inconclusive [inhibitor, partial curve, poor fit]"}, {"smiles": "COc1ccc(CN2CCC(n3nccc3NC(=O)C3CC3)CC2)cc1O", "Potency": "inactive"}, {"smiles": "O=C(C1=C(c2ccccc2)C(=O)c2ccccc2C1=O)c1ccccc1", "Potency": "active: 1.47 µM"}, {"smiles": "COC(=O)CCCC1=CC2=C(c3ccccc3)C(=O)C(C)(OC(=O)C3CCCC3)C(=O)C2=CN1Cc1ccco1", "note": "(stereo not given)", "Potency": "inconclusive [inhibitor, single point]"}, {"smiles": "O=C(NCC1CC1)Nc1cccc(Cl)c1", "Potency": "inactive"}, {"smiles": "CC1Cc2cc(/C=C3/SC(N4CCC(C(N)=O)CC4)=NC3=O)ccc2O1", "note": "(stereo not given)", "Potency": "inconclusive [inhibitor, partial curve]"}, {"smiles": "N#Cc1ccccc1Cn1c(=O)n(Cc2ccc(C(=O)NCc3ccco3)cc2)c(=O)c2ccccc21", "Potency": "active: 2.94 µM"}, {"smiles": "COC(=O)c1[nH]c2ccc(C)cc2c1NC(=O)Nc1ccc(OC)cc1", "Potency": "inactive"}, {"smiles": "CN1C[C@@H]2C[C@@H](c3ccc(C#CC(C)(C)O)s3)N3CCC[C@@]23C1=O", "Potency": "inconclusive [inhibitor, partial curve, poor fit]"}, {"smiles": "COc1ccccc1NC(=O)Cn1c(C)cc(=O)c2cccc(OC)c21", "Potency": "inconclusive [inhibitor, partial curve]"}, {"smiles": "CCOc1ccc(-c2noc(-c3cccnc3)n2)cc1OCC", "Potency": "inconclusive [inhibitor, single point]"}, {"smiles": "CCOC(=O)C1=C(O)/C(=C\\c2ccc(O)c(OCC)c2)N=C1C", "Potency": "inactive"}, {"smiles": "COc1ccc(-n2c(Cc3cccn3C)nnc2SCC(=O)Nc2cc(C)cc(C)c2)cc1", "Potency": "inconclusive [inhibitor, single point]"}, {"smiles": "CCN(CC(=O)Nc1ccc(OC)cc1)CC(=O)Nc1ccc(Br)cc1F", "Potency": "inconclusive [inhibitor, full curve]"}, {"smiles": "CN(C)c1ccc(P(=O)(COc2ccc([N+](=O)[O-])cc2)c2ccc(N(C)C)cc2)cc1", "Potency": "inconclusive [inhibitor, partial curve, poor fit]"}, {"smiles": "CCn1cc([N+](=O)[O-])c(C(=O)NCc2ccc3c(c2)OCO3)n1", "Potency": "inactive"}, {"smiles": "CN(C)S(=O)(=O)c1cccc(C(=O)N(Cc2ccc(F)cc2)Cc2ccco2)c1", "Potency": "inconclusive [inhibitor, single point]"}, {"smiles": "CC(C)C[C@@H](CN(N=O)[C@@H](Cc1ccccc1)CN(C)N=O)N(CCc1ccccc1)N=O", "Potency": "inconclusive [inhibitor, single point]"}, {"smiles": "CCOC(=O)c1cc2sccc2n1CC(=O)c1ccc2c(c1)OCCO2", "Potency": "inconclusive [inhibitor, single point]"}, {"smiles": "NC(=O)c1coc(-c2ccccc2)n1", "Potency": "inactive"}, {"smiles": "CN1CCN(Cc2cn[nH]c2-c2ccc(F)cc2F)[C@@H](c2ccccc2)C1", "Potency": "inactive"}, {"smiles": "CC(C)(COC(=O)Nc1ccccc1)COC(=O)Nc1ccccc1", "Potency": "inconclusive [inhibitor, partial curve, poor fit]"}, {"smiles": "CCOC(=O)/C(C#N)=N\\Nc1cc(Cl)ccc1OC", "Potency": "inactive"}, {"smiles": "CCn1c(SCC(=O)N2CCN(C)CC2)nc2c1c(=O)n(C)c(=O)n2C", "Potency": "inactive"}, {"smiles": "Cc1ccc(N2C(=O)[C@@H]3[C@H](C2=O)C2c4ccccc4C=CN2[C@@H]3C(=O)c2ccco2)c(C)c1", "note": "(stereo not given in full)", "Potency": "inconclusive [inhibitor, partial curve, poor fit]"}, {"smiles": "CN(C)c1ccc(NC(=O)C2C3C=CC(C3)C2C(=O)O)cc1", "note": "(stereo not given)", "Potency": "active: 2.62 µM"}, {"smiles": "Clc1ccc(C2[C@H]3CN(Cc4ccc(-c5ccccc5)cc4)[C@H](c4ccccc4)C34CC2(c2ccccc2)C4)cn1", "note": "(stereo not given in full)", "Potency": "inconclusive [inhibitor, partial curve, poor fit]"}]}]}
